According to PMC12820563, “FoxP3 forms a head-to-head dimer in vivo and stabilizes its multimerization on adjacent microsatellites”:
The list shows a part of the results.

Each sequence was assayed against T1, MBP-FoxP1dN (Mus musculus, UniProt P58462 326-579) (assay: PD-seq (MBP pull-down with sequencing); 20 mM Tris-HCl pH 7.5, 100 mM NaCl, 1.5 mM MgCl2, 0.4 uM protein, 0.1 uM dsDNA library, 30 min, room temperature, amylose pull-down; high values mean tight binding). Conditions: protein: recombinant; tags: His6-MBP; chain copies: 2; dsDNA, one strand shown.
T1 sequence: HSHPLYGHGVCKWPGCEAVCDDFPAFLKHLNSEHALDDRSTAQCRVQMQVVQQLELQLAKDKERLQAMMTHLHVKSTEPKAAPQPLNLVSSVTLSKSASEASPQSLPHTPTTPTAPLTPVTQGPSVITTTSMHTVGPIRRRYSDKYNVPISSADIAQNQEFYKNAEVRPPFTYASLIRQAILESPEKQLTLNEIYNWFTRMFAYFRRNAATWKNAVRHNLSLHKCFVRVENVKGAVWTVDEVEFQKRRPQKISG
Summary of the method: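 Amylose resin was used to capture complexes formed during 30 min at room temperature in Tris pH 7.5 buffer with NaCl and MgCl2 between 0.4 µM His6-MBP-tagged mouse FoxP3 or FoxP1 fragment lacking the N-terminus, expressed in E. coli, and 0.1 µM Klenow-filled double-stranded degenerate DNA library. After three washes, the DNA was released with proteinase K, barcoded by PCR and sequenced on Illumina. Binding is pooled-replicate reads-per-million enrichment, pull-down over input.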

**Q.** Which binding signal does the source give for “GATGATTGTTCTCCCAGCTGATGAATTGGCCGAGTCGAGTAAACAAATTTTCCTAATCTTTCTGTTCAAGCGCCATCTAC” here?
**A.** The binding signal was 0.765 RPM ratio (pull-down/input).

**Q.** For “GATGATTGTTCTCCCAGCTGATGAATTTGATGACTCGAGTAAACAAATTTTCCTAATCTTTCTGTTCAAGCGCCATCTAC”, which binding signal is on record?
**A.** Its binding signal is 0.974 RPM ratio (pull-down/input).

**Q.** For “GATGATTGTTCTCCCAGCTGATGAATTCGGGAGCTCGAGTAAACAAATTTTCCTAATCTTTCTGTTCAAGCGCCATCTAC”, which binding signal is on record?
**A.** The binding signal was 0.758 RPM ratio (pull-down/input).

**Q.** How did the binding signal turn out when “GATGATTGTTCTCCCAGCTGATGAATTGCCCACCTCGAGTAAACAAATTTTCCTAATCTTTCTGTTCAAGCGCCATCTAC” was run?
**A.** The binding signal was 0.84 RPM ratio (pull-down/input).

**Q.** “GATGATTGTTCTCCCAGCTGATGAATTCCGTGACTCGAGTAAACAAATTTTCCTAATCTTTCTGTTCAAGCGCCATCTAC” was tested. Which binding signal did it give?
**A.** Its binding signal is 0.825 RPM ratio (pull-down/input).

**Q.** How did the binding signal turn out when “GATGATTGTTCTCCCAGCTGATGAATTTAGTACCTCGAGTAAACAAATTTTCCTAATCTTTCTGTTCAAGCGCCATCTAC” was run?
**A.** The binding signal was 0.95 RPM ratio (pull-down/input).

**Q.** For “GATGATTGTTCTCCCAGCTGATGAATTTGTCACATCGAGTAAACAAATTTTCCTAATCTTTCTGTTCAAGCGCCATCTAC”, which binding signal is on record?
**A.** Its binding signal is 1.24 RPM ratio (pull-down/input).

**Q.** For “GATGATTGTTCTCCCAGCTGATGAATTTGACGAGTCGAGTAAACAAATTTTCCTAATCTTTCTGTTCAAGCGCCATCTAC”, which binding signal is on record?
**A.** Its binding signal is 0.798 RPM ratio (pull-down/input).

**Q.** “GATGATTGTTCTCCCAGCTGATGAATTGTGATAATCGAGTAAACAAATTTTCCTAATCTTTCTGTTCAAGCGCCATCTAC” was tested. Which binding signal did it give?
**A.** Its binding signal is 1.56 RPM ratio (pull-down/input).

**Q.** How did the binding signal turn out when “GATGATTGTTCTCCCAGCTGATGAATTCCATATATCGAGTAAACAAATTTTCCTAATCTTTCTGTTCAAGCGCCATCTAC” was run?
**A.** The binding signal was 0.994 RPM ratio (pull-down/input).

**Q.** Which binding signal does the source give for “GATGATTGTTCTCCCAGCTGATGAATTTAGATTGTCGAGTAAACAAATTTTCCTAATCTTTCTGTTCAAGCGCCATCTAC” here?
**A.** Its binding signal is 1.23 RPM ratio (pull-down/input).

**Q.** Which binding signal does the source give for “GATGATTGTTCTCCCAGCTGATGAATTGCACCATTCGAGTAAACAAATTTTCCTAATCTTTCTGTTCAAGCGCCATCTAC” here?
**A.** The binding signal was 1.14 RPM ratio (pull-down/input).

**Q.** How did the binding signal turn out when “GATGATTGTTCTCCCAGCTGATGAATTCTAATCCTCGAGTAAACAAATTTTCCTAATCTTTCTGTTCAAGCGCCATCTAC” was run?
**A.** Its binding signal is 0.781 RPM ratio (pull-down/input).

**Q.** Which binding signal does the source give for “GATGATTGTTCTCCCAGCTGATGAATTAATAGCCTCGAGTAAACAAATTTTCCTAATCTTTCTGTTCAAGCGCCATCTAC” here?
**A.** Its binding signal is 0.979 RPM ratio (pull-down/input).

**Q.** How did the binding signal turn out when “GATGATTGTTCTCCCAGCTGATGAATTGGAATGCTCGAGTAAACAAATTTTCCTAATCTTTCTGTTCAAGCGCCATCTAC” was run?
**A.** Its binding signal is 1.06 RPM ratio (pull-down/input).

**Q.** How did the binding signal turn out when “GATGATTGTTCTCCCAGCTGATGAATTAAATACATCGAGTAAACAAATTTTCCTAATCTTTCTGTTCAAGCGCCATCTAC” was run?
**A.** The binding signal was 1.44 RPM ratio (pull-down/input).

**Q.** Which binding signal does the source give for “GATGATTGTTCTCCCAGCTGATGAATTAAGGGTATCGAGTAAACAAATTTTCCTAATCTTTCTGTTCAAGCGCCATCTAC” here?
**A.** Its binding signal is 0.873 RPM ratio (pull-down/input).

**Q.** With “GATGATTGTTCTCCCAGCTGATGAATTCTTCGAATCGAGTAAACAAATTTTCCTAATCTTTCTGTTCAAGCGCCATCTAC” as the sequence, how does the binding signal read?
**A.** Its binding signal is 0.952 RPM ratio (pull-down/input).

**Q.** For “GATGATTGTTCTCCCAGCTGATGAATTGTGTCAGTCGAGTAAACAAATTTTCCTAATCTTTCTGTTCAAGCGCCATCTAC”, which binding signal is on record?
**A.** Its binding signal is 1.04 RPM ratio (pull-down/input).

**Q.** With “GATGATTGTTCTCCCAGCTGATGAATTTCAGTGTTCGAGTAAACAAATTTTCCTAATCTTTCTGTTCAAGCGCCATCTAC” as the sequence, how does the binding signal read?
**A.** The binding signal was 0.983 RPM ratio (pull-down/input).

**Q.** “GATGATTGTTCTCCCAGCTGATGAATTCGATCACTCGAGTAAACAAATTTTCCTAATCTTTCTGTTCAAGCGCCATCTAC” was tested. Which binding signal did it give?
**A.** The binding signal was 0.872 RPM ratio (pull-down/input).

**Q.** For “GATGATTGTTCTCCCAGCTGATGAATTGCTCTGATCGAGTAAACAAATTTTCCTAATCTTTCTGTTCAAGCGCCATCTAC”, which binding signal is on record?
**A.** The binding signal was 0.987 RPM ratio (pull-down/input).

**Q.** “GATGATTGTTCTCCCAGCTGATGAATTAGACCGCTCGAGTAAACAAATTTTCCTAATCTTTCTGTTCAAGCGCCATCTAC” was tested. Which binding signal did it give?
**A.** The binding signal was 0.868 RPM ratio (pull-down/input).

**Q.** How did the binding signal turn out when “GATGATTGTTCTCCCAGCTGATGAATTACACTTCTCGAGTAAACAAATTTTCCTAATCTTTCTGTTCAAGCGCCATCTAC” was run?
**A.** The binding signal was 1.22 RPM ratio (pull-down/input).

**Q.** Which binding signal does the source give for “GATGATTGTTCTCCCAGCTGATGAATTACGTCATTCGAGTAAACAAATTTTCCTAATCTTTCTGTTCAAGCGCCATCTAC” here?
**A.** The binding signal was 1.11 RPM ratio (pull-down/input).

**Q.** For “GATGATTGTTCTCCCAGCTGATGAATTGTCTAACTCGAGTAAACAAATTTTCCTAATCTTTCTGTTCAAGCGCCATCTAC”, which binding signal is on record?
**A.** The binding signal was 1.12 RPM ratio (pull-down/input).

**Q.** How did the binding signal turn out when “GATGATTGTTCTCCCAGCTGATGAATTACAAATTTCGAGTAAACAAATTTTCCTAATCTTTCTGTTCAAGCGCCATCTAC” was run?
**A.** The binding signal was 1.32 RPM ratio (pull-down/input).

**Q.** “GATGATTGTTCTCCCAGCTGATGAATTTGGGGACTCGAGTAAACAAATTTTCCTAATCTTTCTGTTCAAGCGCCATCTAC” was tested. Which binding signal did it give?
**A.** The binding signal was 0.869 RPM ratio (pull-down/input).

**Q.** “GATGATTGTTCTCCCAGCTGATGAATTGGACCCTTCGAGTAAACAAATTTTCCTAATCTTTCTGTTCAAGCGCCATCTAC” was tested. Which binding signal did it give?
**A.** Its binding signal is 0.827 RPM ratio (pull-down/input).

**Q.** How did the binding signal turn out when “GATGATTGTTCTCCCAGCTGATGAATTAACCCTATCGAGTAAACAAATTTTCCTAATCTTTCTGTTCAAGCGCCATCTAC” was run?
**A.** Its binding signal is 0.904 RPM ratio (pull-down/input).

**Q.** With “GATGATTGTTCTCCCAGCTGATGAATTATAGCAGTCGAGTAAACAAATTTTCCTAATCTTTCTGTTCAAGCGCCATCTAC” as the sequence, how does the binding signal read?
**A.** The binding signal was 1.02 RPM ratio (pull-down/input).

**Q.** How did the binding signal turn out when “GATGATTGTTCTCCCAGCTGATGAATTCCTTTCTTCGAGTAAACAAATTTTCCTAATCTTTCTGTTCAAGCGCCATCTAC” was run?
**A.** The binding signal was 0.809 RPM ratio (pull-down/input).

**Q.** How did the binding signal turn out when “GATGATTGTTCTCCCAGCTGATGAATTCAATAGTTCGAGTAAACAAATTTTCCTAATCTTTCTGTTCAAGCGCCATCTAC” was run?
**A.** Its binding signal is 0.822 RPM ratio (pull-down/input).

**Q.** “GATGATTGTTCTCCCAGCTGATGAATTCATTTTGTCGAGTAAACAAATTTTCCTAATCTTTCTGTTCAAGCGCCATCTAC” was tested. Which binding signal did it give?
**A.** Its binding signal is 0.976 RPM ratio (pull-down/input).

**Q.** Which binding signal does the source give for “GATGATTGTTCTCCCAGCTGATGAATTAGGTTATTCGAGTAAACAAATTTTCCTAATCTTTCTGTTCAAGCGCCATCTAC” here?
**A.** The binding signal was 0.941 RPM ratio (pull-down/input).

**Q.** For “GATGATTGTTCTCCCAGCTGATGAATTACGCACGTCGAGTAAACAAATTTTCCTAATCTTTCTGTTCAAGCGCCATCTAC”, which binding signal is on record?
**A.** The binding signal was 1.02 RPM ratio (pull-down/input).

**Q.** For “GATGATTGTTCTCCCAGCTGATGAATTCTTGGTCTCGAGTAAACAAATTTTCCTAATCTTTCTGTTCAAGCGCCATCTAC”, which binding signal is on record?
**A.** The binding signal was 0.858 RPM ratio (pull-down/input).

**Q.** “GATGATTGTTCTCCCAGCTGATGAATTCATTACTTCGAGTAAACAAATTTTCCTAATCTTTCTGTTCAAGCGCCATCTAC” was tested. Which binding signal did it give?
**A.** The binding signal was 0.947 RPM ratio (pull-down/input).

**Q.** “GATGATTGTTCTCCCAGCTGATGAATTATAATGTTCGAGTAAACAAATTTTCCTAATCTTTCTGTTCAAGCGCCATCTAC” was tested. Which binding signal did it give?
**A.** The binding signal was 1.13 RPM ratio (pull-down/input).

**Q.** How did the binding signal turn out when “GATGATTGTTCTCCCAGCTGATGAATTCTCTCCATCGAGTAAACAAATTTTCCTAATCTTTCTGTTCAAGCGCCATCTAC” was run?
**A.** The binding signal was 0.865 RPM ratio (pull-down/input).
